B1: GPR68, Q15743 (parent)
chain: MGNITADNSSMSCTIDHTIHQTLAPVVYVTVLVVGFPANCLSLYFGYLQIKARNELGVYLCNLTVADLFYICSLPFWLQYVLQHDNWSHGDLSCQVCGILLYENIYISVGFLCCISVDRYLAVAHPFRFHQFRTLKAAVGVSVVIWAKELLTSIYFLMHEEVIEDENQHRVCFEHYPIQAWQRAINYYRFLVGFLFPICLLLASYQGILRAVRRSHGTQKSRKDQIQRLVLSTVVIFLACFLPYHVLLLVRSVWEASCDFAKGVFNAYHFSLLLTSFNCVADPVLYCFVSETTHRDLARLRGACLAFLTCSRTGRAREAYPLGAPEASGKSGAQGEEPELLTKLHPAFQTPNSPGSGGFPTGRLA

In data set [1] the parent is B1. Nature of the data set: cAMP reporter score (Enrich2 score, wild type = 0); higher = more signal; HEK293T, FACS bins.
In data set [2] the parent is B1. The experiment in a line: surface expression score (Enrich2 score, wild type = 0); higher = more signal; HEK293T, FACS bins.

Scores whose standard error is large were omitted. Two further conditions of the source, in which the scores hardly spread, are not listed. In variant names, del marks residues removed and ins residues inserted between the two positions. For some of these results: The data file names ogerin without a concentration.

From the GPR68 mutational scans of Howard et al. (2025) come the findings set out here.

In the case of R53C, the cAMP reporter score in data set [1] (pH 5.5) was -0.213; in data set [1] (pH 6), -0.718; in data set [1] (pH 6, modulator: ogerin), -0.524; in data set [1] (pH 6.5, modulator: ogerin), -0.586. For the same variant, the surface expression score in data set [2] was -0.78.
As for R53E, the cAMP reporter score in data set [1] (pH 5.5) was -0.395; in data set [1] (pH 6) it was -0.826; in data set [1] (pH 6, modulator: ogerin) it was 0.132; in data set [1] (pH 6.5, modulator: ogerin) it was -0.108. For the same variant, the surface expression score in data set [2] was -1.04.
Taken in the same sequence, the figures for R53L were -1.38, -0.822, -1.31, -1.38 and -2.75.
Taken in the same sequence, the figures for R53M were -0.488, -0.197, -1.04, -0.119 and -1.12.
R53P: the cAMP reporter score in data set [1] (pH 5.5) is -1.1; in data set [1] (pH 6) it was -1.71; in data set [1] (pH 6, modulator: ogerin) it was -0.437; in data set [1] (pH 6.5, modulator: ogerin) it was -1.16. Moreover, the surface expression score in data set [2] was -1.8.
Taken in the same sequence, the figures for R53N were -0.434, -0.044, -0.086, 0.578 and -0.028.
As to R53S, the cAMP reporter score in data set [1] (pH 5.5) was 1.16; in data set [1] (pH 6), -1.01; in data set [1] (pH 6, modulator: ogerin), 1.15; in data set [1] (pH 6.5, modulator: ogerin) it was -0.259.
R53K: the cAMP reporter score in data set [1] (pH 5.5) was 1.43; in data set [1] (pH 6) it was 0.884; in data set [1] (pH 6, modulator: ogerin) it was 2.27; in data set [1] (pH 6.5, modulator: ogerin), 1.39. In data set [2], the surface expression score amounted to 2.53.
Regarding R53I, the cAMP reporter score was -0.798 in data set [1] (pH 5.5); -0.89 in data set [1] (pH 6); 0.151 in data set [1] (pH 6, modulator: ogerin); -0.083 in data set [1] (pH 6.5, modulator: ogerin). Moreover, in data set [2], the surface expression score is -1.59.
Consider R53H, for which the cAMP reporter score in data set [1] (pH 5.5) is 0.54; in data set [1] (pH 6) it was 0.325; in data set [1] (pH 6, modulator: ogerin), 0.89; in data set [1] (pH 6.5, modulator: ogerin), -1.06.
As for R53V, the cAMP reporter score is -1.61 in data set [1] (pH 5.5) and -0.963 in data set [1] (pH 6.5, modulator: ogerin). Moreover, the surface expression score in data set [2] is -3.17.
With R53D, the cAMP reporter score in data set [1] (pH 5.5) was -0.343; in data set [1] (pH 6, modulator: ogerin) it was 0.01; in data set [1] (pH 6.5, modulator: ogerin) it was -0.849.
As to R53G, the cAMP reporter score in data set [1] (pH 5.5) worked out at 1.09; in data set [1] (pH 6), 5.54; in data set [1] (pH 6, modulator: ogerin) it was 2.08; in data set [1] (pH 6.5, modulator: ogerin), 4.55.
Taken in the same sequence, the figures for L56_G57del were -0.939, -0.419, -1.26 and -0.332.
Take C61E: the cAMP reporter score in data set [1] (pH 5.5) is -2.1; in data set [1] (pH 6), -1.63; in data set [1] (pH 6, modulator: ogerin), -1.67; in data set [1] (pH 6.5, modulator: ogerin), 0.468. Also, the surface expression score in data set [2] was -1.54.
With C61W, the cAMP reporter score is -0.119 in data set [1] (pH 5.5); -0.136 in data set [1] (pH 6); 0.323 in data set [1] (pH 6, modulator: ogerin); 0.516 in data set [1] (pH 6.5, modulator: ogerin). Besides, the surface expression score in data set [2] was -0.364.
Regarding C61N, the cAMP reporter score in data set [1] (pH 5.5) is -1.72; in data set [1] (pH 6), -1.05; in data set [1] (pH 6, modulator: ogerin), -1.39; in data set [1] (pH 6.5, modulator: ogerin), -0.937.
As to C61G, the cAMP reporter score is -0.583 in data set [1] (pH 5.5); -1.26 in data set [1] (pH 6, modulator: ogerin); -0.328 in data set [1] (pH 6.5, modulator: ogerin).
C61S: the cAMP reporter score in data set [1] (pH 5.5) was -0.725; in data set [1] (pH 6) it was -0.776; in data set [1] (pH 6, modulator: ogerin), -1.01; in data set [1] (pH 6.5, modulator: ogerin) it was -1.05.
In the case of C61V, the cAMP reporter score stood at 0.347 in data set [1] (pH 5.5); 3.09 in data set [1] (pH 6); 0.699 in data set [1] (pH 6, modulator: ogerin); 2.2 in data set [1] (pH 6.5, modulator: ogerin). Besides, the surface expression score in data set [2] came out at 1.87.
Regarding C61K, the cAMP reporter score was -1.08 in data set [1] (pH 5.5); -0.953 in data set [1] (pH 6, modulator: ogerin); -1.98 in data set [1] (pH 6.5, modulator: ogerin).
As for C61L, the cAMP reporter score is 1.21 in data set [1] (pH 5.5); -0.487 in data set [1] (pH 6); 0.232 in data set [1] (pH 6, modulator: ogerin); 0.371 in data set [1] (pH 6.5, modulator: ogerin). The surface expression score in data set [2] is 1.42.
Taken in the same sequence, the figures for C61F were -0.614, -0.467, -0.161, -0.263 and 1.11.
The like results for C61T were, in that order, -0.155, -0.498, -0.098, -0.554 and -0.605.
The like results for C61R were, in that order, -1.17, -1.37, -1.14, -1.04 and -2.06.
In the case of C61Q, the cAMP reporter score is -0.565 in data set [1] (pH 5.5) and -0.805 in data set [1] (pH 6). The surface expression score in data set [2] is -2.71.
Turning to C61M, the cAMP reporter score in data set [1] (pH 5.5) was -0.026; in data set [1] (pH 6), 0.22; in data set [1] (pH 6, modulator: ogerin), 0.124; in data set [1] (pH 6.5, modulator: ogerin), -0.361. Further, the surface expression score in data set [2] is 0.756.
The like results for C61P were, in that order, -1.7, -1.59, -2.13, -0.844 and -2.17.
The like results for C61D were, in that order, -0.239, -0.913, -1.65, -1.45 and -2.73.
Taken in the same sequence, the figures for C61Y were -0.982, -0.971, -1.11, -1.14 and -0.99.
Take C61I: the cAMP reporter score in data set [1] (pH 5.5) was found to be 1.28; in data set [1] (pH 6), 1.32; in data set [1] (pH 6, modulator: ogerin) it was 1.13; in data set [1] (pH 6.5, modulator: ogerin), 1.83. Besides, the surface expression score in data set [2] was determined as 2.2.
Take C61A: the cAMP reporter score in data set [1] (pH 5.5) is 1.23; in data set [1] (pH 6, modulator: ogerin), -0.005; in data set [1] (pH 6.5, modulator: ogerin) it was 0.091. For the same variant, the surface expression score in data set [2] is -0.213.
Take T64_A66del: the cAMP reporter score in data set [1] (pH 5.5) is -0.734; in data set [1] (pH 6) it was -0.455; in data set [1] (pH 6, modulator: ogerin), -1.44; in data set [1] (pH 6.5, modulator: ogerin) it was -0.726. The surface expression score in data set [2] is -2.48.
